The text below walks through data of the supplement of paper PMC11876631.

± gives the standard deviation of the averaged measurements. Laboratory Escherichia coli strains with one amino-acid change in an essential protein, pooled on minimal glucose agar with carbenicillin or gentamicin at twice the control MIC (plus kanamycin and chloramphenicol for the plasmids), 48 h. Fold change of barcode share against drug-free plates; higher = less susceptible. Active = above 20 in both replicates (the paper's putatively resistant). '<' = one read or none on drug, '>' = one read or none on a drug-free plate. Shares are relative, so most strains fall below 1 when a few take over. Listed are strains with at least 15 reads on both drug-free plates, and hits; most hits rest on fewer reference reads. Replicate rank correlation about 0.5. Edits are read from barcodes.

To fix the notation:
B1: argH L339D (protein)
chain: MALWGGRFTQAADQRFKQFNDSLRFDYRLAEQDIVGSVAWSKALVTVGVLTAEEQAQLEEALNVLLEDVRARPQQILESDAEDIHSWVEGKLIDKVGQLGKKLHTGRSRNDQVATDLKLWCKDTVSELLTANRQLQSALVETAQNNQDAVMPGYTHLQRAQPVTFAHWCLAYVEMLARDESRLQDALKRLDVSPLGCGALAGTAYEIDREQLAGWLGFASATRNSLDSVSDRDHVLELLSAAAIGMVHLSRFAEDLIFFNTGEAGFVELSDRVTSGSSLMPQKKNPDALELIRGKCGRVQGALTGMMMTLKGLPLAYNKDMQEDKEGLFDALDTWLDCDHMAALVLDGIQVKRPRCQEAAQQGYANATELADYLVAKGVPFREAHHIVGEAVVEAIRQGKPLEDLPLSELQKFSQVIDEDVYPILSLQSCLDKRAAKGGVSPQQVAQAIAFAQARLG
B2: hisS F269A (protein)
chain: MAKNIQAIRGMNDYLPGETAIWQRIEGTLKNVLGSYGYSEIRLPIVEQTPLFKRAIGEVTDVVEKEMYTFEDRNGDSLTLRPEGTAGCVRAGIEHGLLYNQEQRLWYIGPMFRHERPQKGRYRQFHQLGCEVFGLQGPDIDAELIMLTARWWRALGISEHVTLELNSIGSLEARANYRDALVAFLEQHKEKLDEDCKRRMYTNPLRVLDSKNPEVQALLNDAPALGDYLDEESREHFAGLCKLLESAGIAYTVNQRLVRGLDYYNRTVAEWVTNSLGSQGTVCAGGRYDGLVEQLGGRATPAVGFAMGLERLVLLVQAVNPEFKADPVVDIYLVASGADTQSAAMALAERLRDELPGVKLMTNHGGGNFKKQFARADKWGARVAVVLGESEVANGTAVVKDLRSGEQTAVAQDSVAAHLRTLLG
B3: hisS V132Q (protein)
chain: MAKNIQAIRGMNDYLPGETAIWQRIEGTLKNVLGSYGYSEIRLPIVEQTPLFKRAIGEVTDVVEKEMYTFEDRNGDSLTLRPEGTAGCVRAGIEHGLLYNQEQRLWYIGPMFRHERPQKGRYRQFHQLGCEQFGLQGPDIDAELIMLTARWWRALGISEHVTLELNSIGSLEARANYRDALVAFLEQHKEKLDEDCKRRMYTNPLRVLDSKNPEVQALLNDAPALGDYLDEESREHFAGLCKLLESAGIAYTVNQRLVRGLDYYNRTVFEWVTNSLGSQGTVCAGGRYDGLVEQLGGRATPAVGFAMGLERLVLLVQAVNPEFKADPVVDIYLVASGADTQSAAMALAERLRDELPGVKLMTNHGGGNFKKQFARADKWGARVAVVLGESEVANGTAVVKDLRSGEQTAVAQDSVAAHLRTLLG
B4: hisS V132W (protein)
chain: MAKNIQAIRGMNDYLPGETAIWQRIEGTLKNVLGSYGYSEIRLPIVEQTPLFKRAIGEVTDVVEKEMYTFEDRNGDSLTLRPEGTAGCVRAGIEHGLLYNQEQRLWYIGPMFRHERPQKGRYRQFHQLGCEWFGLQGPDIDAELIMLTARWWRALGISEHVTLELNSIGSLEARANYRDALVAFLEQHKEKLDEDCKRRMYTNPLRVLDSKNPEVQALLNDAPALGDYLDEESREHFAGLCKLLESAGIAYTVNQRLVRGLDYYNRTVFEWVTNSLGSQGTVCAGGRYDGLVEQLGGRATPAVGFAMGLERLVLLVQAVNPEFKADPVVDIYLVASGADTQSAAMALAERLRDELPGVKLMTNHGGGNFKKQFARADKWGARVAVVLGESEVANGTAVVKDLRSGEQTAVAQDSVAAHLRTLLG
B5: hisS F133P (protein)
chain: MAKNIQAIRGMNDYLPGETAIWQRIEGTLKNVLGSYGYSEIRLPIVEQTPLFKRAIGEVTDVVEKEMYTFEDRNGDSLTLRPEGTAGCVRAGIEHGLLYNQEQRLWYIGPMFRHERPQKGRYRQFHQLGCEVPGLQGPDIDAELIMLTARWWRALGISEHVTLELNSIGSLEARANYRDALVAFLEQHKEKLDEDCKRRMYTNPLRVLDSKNPEVQALLNDAPALGDYLDEESREHFAGLCKLLESAGIAYTVNQRLVRGLDYYNRTVFEWVTNSLGSQGTVCAGGRYDGLVEQLGGRATPAVGFAMGLERLVLLVQAVNPEFKADPVVDIYLVASGADTQSAAMALAERLRDELPGVKLMTNHGGGNFKKQFARADKWGARVAVVLGESEVANGTAVVKDLRSGEQTAVAQDSVAAHLRTLLG
B6: hisS F133W (protein)
chain: MAKNIQAIRGMNDYLPGETAIWQRIEGTLKNVLGSYGYSEIRLPIVEQTPLFKRAIGEVTDVVEKEMYTFEDRNGDSLTLRPEGTAGCVRAGIEHGLLYNQEQRLWYIGPMFRHERPQKGRYRQFHQLGCEVWGLQGPDIDAELIMLTARWWRALGISEHVTLELNSIGSLEARANYRDALVAFLEQHKEKLDEDCKRRMYTNPLRVLDSKNPEVQALLNDAPALGDYLDEESREHFAGLCKLLESAGIAYTVNQRLVRGLDYYNRTVFEWVTNSLGSQGTVCAGGRYDGLVEQLGGRATPAVGFAMGLERLVLLVQAVNPEFKADPVVDIYLVASGADTQSAAMALAERLRDELPGVKLMTNHGGGNFKKQFARADKWGARVAVVLGESEVANGTAVVKDLRSGEQTAVAQDSVAAHLRTLLG
B7: hisS V132D (protein)
chain: MAKNIQAIRGMNDYLPGETAIWQRIEGTLKNVLGSYGYSEIRLPIVEQTPLFKRAIGEVTDVVEKEMYTFEDRNGDSLTLRPEGTAGCVRAGIEHGLLYNQEQRLWYIGPMFRHERPQKGRYRQFHQLGCEDFGLQGPDIDAELIMLTARWWRALGISEHVTLELNSIGSLEARANYRDALVAFLEQHKEKLDEDCKRRMYTNPLRVLDSKNPEVQALLNDAPALGDYLDEESREHFAGLCKLLESAGIAYTVNQRLVRGLDYYNRTVFEWVTNSLGSQGTVCAGGRYDGLVEQLGGRATPAVGFAMGLERLVLLVQAVNPEFKADPVVDIYLVASGADTQSAAMALAERLRDELPGVKLMTNHGGGNFKKQFARADKWGARVAVVLGESEVANGTAVVKDLRSGEQTAVAQDSVAAHLRTLLG
B8: hisS F133Q (protein)
chain: MAKNIQAIRGMNDYLPGETAIWQRIEGTLKNVLGSYGYSEIRLPIVEQTPLFKRAIGEVTDVVEKEMYTFEDRNGDSLTLRPEGTAGCVRAGIEHGLLYNQEQRLWYIGPMFRHERPQKGRYRQFHQLGCEVQGLQGPDIDAELIMLTARWWRALGISEHVTLELNSIGSLEARANYRDALVAFLEQHKEKLDEDCKRRMYTNPLRVLDSKNPEVQALLNDAPALGDYLDEESREHFAGLCKLLESAGIAYTVNQRLVRGLDYYNRTVFEWVTNSLGSQGTVCAGGRYDGLVEQLGGRATPAVGFAMGLERLVLLVQAVNPEFKADPVVDIYLVASGADTQSAAMALAERLRDELPGVKLMTNHGGGNFKKQFARADKWGARVAVVLGESEVANGTAVVKDLRSGEQTAVAQDSVAAHLRTLLG
B9: hisS V132A (protein)
chain: MAKNIQAIRGMNDYLPGETAIWQRIEGTLKNVLGSYGYSEIRLPIVEQTPLFKRAIGEVTDVVEKEMYTFEDRNGDSLTLRPEGTAGCVRAGIEHGLLYNQEQRLWYIGPMFRHERPQKGRYRQFHQLGCEAFGLQGPDIDAELIMLTARWWRALGISEHVTLELNSIGSLEARANYRDALVAFLEQHKEKLDEDCKRRMYTNPLRVLDSKNPEVQALLNDAPALGDYLDEESREHFAGLCKLLESAGIAYTVNQRLVRGLDYYNRTVFEWVTNSLGSQGTVCAGGRYDGLVEQLGGRATPAVGFAMGLERLVLLVQAVNPEFKADPVVDIYLVASGADTQSAAMALAERLRDELPGVKLMTNHGGGNFKKQFARADKWGARVAVVLGESEVANGTAVVKDLRSGEQTAVAQDSVAAHLRTLLG
B10: hisS F133A (protein)
chain: MAKNIQAIRGMNDYLPGETAIWQRIEGTLKNVLGSYGYSEIRLPIVEQTPLFKRAIGEVTDVVEKEMYTFEDRNGDSLTLRPEGTAGCVRAGIEHGLLYNQEQRLWYIGPMFRHERPQKGRYRQFHQLGCEVAGLQGPDIDAELIMLTARWWRALGISEHVTLELNSIGSLEARANYRDALVAFLEQHKEKLDEDCKRRMYTNPLRVLDSKNPEVQALLNDAPALGDYLDEESREHFAGLCKLLESAGIAYTVNQRLVRGLDYYNRTVFEWVTNSLGSQGTVCAGGRYDGLVEQLGGRATPAVGFAMGLERLVLLVQAVNPEFKADPVVDIYLVASGADTQSAAMALAERLRDELPGVKLMTNHGGGNFKKQFARADKWGARVAVVLGESEVANGTAVVKDLRSGEQTAVAQDSVAAHLRTLLG
B11: hisS F269Q (protein)
chain: MAKNIQAIRGMNDYLPGETAIWQRIEGTLKNVLGSYGYSEIRLPIVEQTPLFKRAIGEVTDVVEKEMYTFEDRNGDSLTLRPEGTAGCVRAGIEHGLLYNQEQRLWYIGPMFRHERPQKGRYRQFHQLGCEVFGLQGPDIDAELIMLTARWWRALGISEHVTLELNSIGSLEARANYRDALVAFLEQHKEKLDEDCKRRMYTNPLRVLDSKNPEVQALLNDAPALGDYLDEESREHFAGLCKLLESAGIAYTVNQRLVRGLDYYNRTVQEWVTNSLGSQGTVCAGGRYDGLVEQLGGRATPAVGFAMGLERLVLLVQAVNPEFKADPVVDIYLVASGADTQSAAMALAERLRDELPGVKLMTNHGGGNFKKQFARADKWGARVAVVLGESEVANGTAVVKDLRSGEQTAVAQDSVAAHLRTLLG
B12: hisS F269W (protein)
chain: MAKNIQAIRGMNDYLPGETAIWQRIEGTLKNVLGSYGYSEIRLPIVEQTPLFKRAIGEVTDVVEKEMYTFEDRNGDSLTLRPEGTAGCVRAGIEHGLLYNQEQRLWYIGPMFRHERPQKGRYRQFHQLGCEVFGLQGPDIDAELIMLTARWWRALGISEHVTLELNSIGSLEARANYRDALVAFLEQHKEKLDEDCKRRMYTNPLRVLDSKNPEVQALLNDAPALGDYLDEESREHFAGLCKLLESAGIAYTVNQRLVRGLDYYNRTVWEWVTNSLGSQGTVCAGGRYDGLVEQLGGRATPAVGFAMGLERLVLLVQAVNPEFKADPVVDIYLVASGADTQSAAMALAERLRDELPGVKLMTNHGGGNFKKQFARADKWGARVAVVLGESEVANGTAVVKDLRSGEQTAVAQDSVAAHLRTLLG

One data set has as its target Escherichia coli (laboratory strain). The data set is described as follows: barcode share on antibiotic plates over drug-free plates; higher = less susceptible. To be noted: antibiotic: carbenicillin; 2× MIC (3.1 µg/mL). Here is the method:
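A pool of E. coli strains, each edited to carry one amino-acid change in an essential protein, was grown for 48 h on minimal glucose agar with or without antibiotic; strain barcodes were sequenced; mean of two replicates.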
For the protein B1, the “fold change of barcode share” value was 39.3 [active].

For the protein B2, the “fold change of barcode share” value was found to be 0.368 ± 0.01.

Turning to B3, the “fold change of barcode share” value came to 0.204 ± 0.089.

For B4, the “fold change of barcode share” value worked out at 0.428 ± 0.12.

In the case of B5, the “fold change of barcode share” value is 0.419 ± 0.17.

On to B6, for which the “fold change of barcode share” value was 0.248 ± 0.082.

In the case of B7, the “fold change of barcode share” value is 0.233 ± 0.011.

For the protein B8, the “fold change of barcode share” value is 0.39 ± 0.13.

Regarding B9, the “fold change of barcode share” value came out at 0.249 ± 0.018.

Regarding B10, the “fold change of barcode share” value came to 0.252 ± 0.047.

Take B11: the “fold change of barcode share” value stood at 0.363 ± 0.11.

Consider B12, for which the “fold change of barcode share” value was found to be 0.255 ± 0.024.

The same data set, now with this note: antibiotic: gentamicin; 2× MIC (MIC 0.45 µg/mL).
Take B2: the “fold change of barcode share” value was less than 0.0037.

With B3, the “fold change of barcode share” value was determined as 0.00738 ± 0.00041.

Take B4: the “fold change of barcode share” value is 0.00654 ± 0.0033.

In the case of B6, the “fold change of barcode share” value was 0.00445 ± 0.0025.

Consider B7, for which the “fold change of barcode share” value is less than 0.00248.

With B8, the “fold change of barcode share” value was less than 0.00994.

With B9, the “fold change of barcode share” value came out at 0.00312 ± 0.0014.

B10: the “fold change of barcode share” value came out at 0.00998 ± 0.001.

As to B11, the “fold change of barcode share” value was determined as 0.0059 ± 0.00013.

For the protein B12, the “fold change of barcode share” value is less than 0.0054.
